Results are given in words; binding and its absence hold for the method and conditions named. Binding seen in cells or lysates may run through a third protein. Some binding calls cover weakened binding; strength is not graded here.
Tests used:
Experiment in all cases: co-IP; HEK293 cells co-transfected, cross-linked with 0.5 mM DSP, lysed in RIPA buffer; lysates with anti-Flag affinity agarose gel at 4°C for 4 h; Western blot; Src, HA-Gγ2 or untagged Fhit co-expressed in some samples
[1] = biological target: Flag-Fhit (human) (UniProt P49789)
[2] = biological target: Flag-Fhit H96D (human) (UniProt P49789)
[3] = biological target: Flag-Fhit Y114F (human) (UniProt P49789)
[4] = biological target: Flag-Fhit I10W/L25W (human) (UniProt P49789)
[5] = biological target: Flag-Fhit L25W (human) (UniProt P49789)
[6] = biological target: Flag-Gβ1 (UniProt P62873)

By UniProt entry, the sequences of proteins in these tests, tags left out. Where a name states a change or a piece, a line headed by the entry shows the natural chain unless it says otherwise. Chains listed by the source or under a name are the forms on record and can include a tag or linker.
UniProt P49789: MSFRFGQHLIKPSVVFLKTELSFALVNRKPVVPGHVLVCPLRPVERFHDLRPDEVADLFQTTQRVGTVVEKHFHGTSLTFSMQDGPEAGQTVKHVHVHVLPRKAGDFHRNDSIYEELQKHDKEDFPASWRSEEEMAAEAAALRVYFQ
UniProt P62873: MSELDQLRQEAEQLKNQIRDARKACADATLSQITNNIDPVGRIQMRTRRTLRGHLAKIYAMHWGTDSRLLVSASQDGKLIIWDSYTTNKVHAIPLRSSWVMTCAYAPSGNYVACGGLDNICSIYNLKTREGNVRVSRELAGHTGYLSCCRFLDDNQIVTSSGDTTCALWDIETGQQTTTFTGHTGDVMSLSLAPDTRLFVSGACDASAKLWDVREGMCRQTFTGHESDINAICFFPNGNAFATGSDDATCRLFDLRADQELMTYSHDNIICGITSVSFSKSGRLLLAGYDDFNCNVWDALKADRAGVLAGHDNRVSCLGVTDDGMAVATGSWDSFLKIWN
UniProt P04899: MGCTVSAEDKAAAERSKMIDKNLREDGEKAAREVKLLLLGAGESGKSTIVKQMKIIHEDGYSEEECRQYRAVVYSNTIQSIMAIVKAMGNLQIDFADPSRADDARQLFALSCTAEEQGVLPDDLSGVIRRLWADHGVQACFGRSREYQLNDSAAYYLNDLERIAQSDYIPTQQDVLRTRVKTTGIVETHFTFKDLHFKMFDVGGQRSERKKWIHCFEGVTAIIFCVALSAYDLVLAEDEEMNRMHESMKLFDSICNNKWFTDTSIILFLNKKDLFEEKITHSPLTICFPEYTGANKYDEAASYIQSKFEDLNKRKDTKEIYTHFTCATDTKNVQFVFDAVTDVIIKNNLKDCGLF
UniProt P63092: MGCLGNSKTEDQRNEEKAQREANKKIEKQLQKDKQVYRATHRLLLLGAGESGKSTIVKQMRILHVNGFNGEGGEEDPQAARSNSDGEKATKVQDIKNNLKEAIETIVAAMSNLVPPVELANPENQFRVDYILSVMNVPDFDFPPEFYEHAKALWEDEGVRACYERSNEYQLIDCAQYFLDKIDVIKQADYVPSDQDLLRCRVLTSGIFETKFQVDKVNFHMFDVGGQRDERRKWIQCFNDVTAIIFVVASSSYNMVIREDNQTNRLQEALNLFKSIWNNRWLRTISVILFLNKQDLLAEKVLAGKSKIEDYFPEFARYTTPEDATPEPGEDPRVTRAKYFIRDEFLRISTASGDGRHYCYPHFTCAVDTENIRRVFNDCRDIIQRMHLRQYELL
UniProt P50148: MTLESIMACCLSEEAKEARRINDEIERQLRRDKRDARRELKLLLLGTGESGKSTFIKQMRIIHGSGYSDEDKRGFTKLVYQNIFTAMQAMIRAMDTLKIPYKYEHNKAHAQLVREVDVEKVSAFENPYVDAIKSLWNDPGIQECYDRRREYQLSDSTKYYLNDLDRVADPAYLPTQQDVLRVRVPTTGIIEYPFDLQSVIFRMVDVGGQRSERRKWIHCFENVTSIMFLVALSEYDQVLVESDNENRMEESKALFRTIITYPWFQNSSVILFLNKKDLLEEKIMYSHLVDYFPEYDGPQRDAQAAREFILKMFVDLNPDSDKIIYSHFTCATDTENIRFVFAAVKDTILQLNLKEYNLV
GαqRC (P50148, form named): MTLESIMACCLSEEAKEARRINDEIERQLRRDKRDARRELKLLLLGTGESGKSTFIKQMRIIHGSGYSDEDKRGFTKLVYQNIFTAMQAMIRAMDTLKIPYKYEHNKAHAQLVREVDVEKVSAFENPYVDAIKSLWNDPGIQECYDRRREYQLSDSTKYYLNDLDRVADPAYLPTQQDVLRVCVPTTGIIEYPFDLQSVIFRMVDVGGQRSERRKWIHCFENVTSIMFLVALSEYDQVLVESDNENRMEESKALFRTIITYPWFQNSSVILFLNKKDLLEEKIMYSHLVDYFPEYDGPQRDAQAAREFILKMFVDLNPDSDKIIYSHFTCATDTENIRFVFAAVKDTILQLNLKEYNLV
UniProt O95837: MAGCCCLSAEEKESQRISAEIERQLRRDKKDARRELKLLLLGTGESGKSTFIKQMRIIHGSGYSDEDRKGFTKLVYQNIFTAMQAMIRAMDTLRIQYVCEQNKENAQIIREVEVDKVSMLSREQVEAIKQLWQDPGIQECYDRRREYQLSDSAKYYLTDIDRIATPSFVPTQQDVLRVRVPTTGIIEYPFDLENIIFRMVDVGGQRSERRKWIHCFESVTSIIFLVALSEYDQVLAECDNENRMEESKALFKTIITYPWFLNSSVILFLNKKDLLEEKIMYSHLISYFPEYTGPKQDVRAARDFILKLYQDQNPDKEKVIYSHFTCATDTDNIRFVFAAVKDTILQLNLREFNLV
UniProt Q14344: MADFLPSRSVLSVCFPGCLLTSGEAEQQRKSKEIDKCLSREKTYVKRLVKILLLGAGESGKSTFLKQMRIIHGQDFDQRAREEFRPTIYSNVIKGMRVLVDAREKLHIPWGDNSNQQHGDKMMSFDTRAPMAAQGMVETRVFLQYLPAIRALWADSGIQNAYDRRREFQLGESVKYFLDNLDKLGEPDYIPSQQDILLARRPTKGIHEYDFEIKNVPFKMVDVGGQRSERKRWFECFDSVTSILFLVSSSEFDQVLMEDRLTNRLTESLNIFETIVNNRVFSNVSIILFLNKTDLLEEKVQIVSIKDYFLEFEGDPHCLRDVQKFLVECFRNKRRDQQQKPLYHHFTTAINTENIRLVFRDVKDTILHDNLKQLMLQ
UniProt P29992: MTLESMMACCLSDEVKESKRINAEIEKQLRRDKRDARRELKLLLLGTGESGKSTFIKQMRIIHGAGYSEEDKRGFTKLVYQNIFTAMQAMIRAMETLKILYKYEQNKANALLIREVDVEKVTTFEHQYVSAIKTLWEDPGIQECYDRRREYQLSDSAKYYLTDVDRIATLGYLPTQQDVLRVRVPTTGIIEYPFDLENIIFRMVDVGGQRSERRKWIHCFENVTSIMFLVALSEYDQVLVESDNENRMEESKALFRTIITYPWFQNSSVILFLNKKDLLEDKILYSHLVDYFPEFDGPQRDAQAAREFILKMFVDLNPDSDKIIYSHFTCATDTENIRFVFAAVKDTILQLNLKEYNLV
UniProt P62834: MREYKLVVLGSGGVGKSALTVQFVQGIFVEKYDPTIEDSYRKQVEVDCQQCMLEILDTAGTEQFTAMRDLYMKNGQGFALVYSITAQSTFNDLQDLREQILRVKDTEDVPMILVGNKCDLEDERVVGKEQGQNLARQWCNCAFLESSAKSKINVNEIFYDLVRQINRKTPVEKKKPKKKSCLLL
UniProt P19086: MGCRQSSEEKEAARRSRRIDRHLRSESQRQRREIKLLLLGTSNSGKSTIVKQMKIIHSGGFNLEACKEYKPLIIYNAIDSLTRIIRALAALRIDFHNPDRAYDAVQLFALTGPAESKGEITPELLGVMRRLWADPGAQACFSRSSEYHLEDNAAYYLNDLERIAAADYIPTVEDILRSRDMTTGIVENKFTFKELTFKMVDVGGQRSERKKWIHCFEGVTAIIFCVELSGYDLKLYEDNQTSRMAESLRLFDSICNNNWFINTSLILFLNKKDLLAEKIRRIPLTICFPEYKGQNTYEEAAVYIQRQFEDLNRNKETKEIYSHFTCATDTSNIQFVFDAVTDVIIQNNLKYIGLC

Row | Substance | binding [1] | further results
1 | Gαi2 (wild-type) (from UniProt P04899 1-355) | no binding | 
2 | Gαs (wild-type) (from UniProt P63092 1-394) | binds | 
3 | GαqRC (from UniProt P50148 1-359) | binds | binding [2]: binds; binding [3]: binds; binding [4]: binds; binding [5]: binds
4 | Gα14 (wild-type) (from UniProt O95837 1-355) | no binding | 
5 | Gα13 (wild-type) (from UniProt Q14344 1-377) | binds | 
6 | Gα11 (wild-type) (from UniProt P29992 1-359) | no binding | 
7 | Fhit (untagged, pcDNA3-Fhit) (from UniProt P49789 1-147) |  | binding [6]: no binding
8 | Gαq (wild-type) (from UniProt P50148 1-359) |  | binding [2]: no binding; binding [4]: no binding; binding [5]: no binding
9 | HA-Rap1A (from UniProt P62834 1-184) | no binding | 
10 | Gαz (wild-type) (from UniProt P19086 1-355) | no binding | 
